Results from PubChem BioAssay (Tox21).
Inconclusive results, whose numbers are uncertain, are shown with a selection of clear calls. For some assays here: Potencies beside an inconclusive call are fits to weak or partial responses and may not hold up. Calls of active or inactive are those of the source. Unless noted, calls come from the whole dose curve; as a rule, active = well fitted curve in the direction sought with a large enough effect in the repeat runs; inconclusive = weak or mixed curves; inactive = no such curve, though single readings can be large; an effect the other way counts as inactive or inconclusive.

Legend:
[1] = qHTS assay for small molecule agonists of the p53 signaling pathway - cell viability (AID 651633; calls by dose curve; note: potency is the fitted concentration of half-maximal effect; nearly all actives have a fitted effect of over 30% in size)
Procedure, shortened: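 Viability counter-read: CellTiter-Glo luminescence (30 min, room temperature) in the same p53RE-bla plates. These plates had been exposed to compounds for 16 h at 37 C.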

[2] = qHTS assay for small molecules that induce genotoxicity in human embryonic kidney cells expressing luciferase-tagged ATAD5 - cell viability (AID 651634; calls by dose curve; note: % is set by controls: 0 for no effect and ±100 for the full control effect; nearly all actives have a fitted effect of over 25% in size)
Procedure, shortened: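 Live-cell protease activity (CellTiter-Fluor, fluorescence) indicates viability. HEK293T cells with luciferase-tagged ATAD5; 15.5 hr compound treatment at 37C.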

[3] = qHTS assay for small molecule disruptors of the mitochondrial membrane potential (AID 720635); settings: HepG2 mitochondrial membrane potential, Mito-MPS dye ratio; ratio activity, negative = MMP loss: at 83.2 µM (top of the series) unless noted; note: % is set by controls: 0 for no effect and ±100 for the full control effect
Procedure, shortened: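 Mitochondrial membrane potential tracked with Mito-MPS dye, red aggregates (ex 540/em 590 nm) against green monomers (ex 490/em 535 nm). Compound treatment 1 hr at 37C, dye 30 min in HepG2.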

[4] = biological target: Glucocorticoid receptor (Homo sapiens) (UniProt P04150); test: qHTS assay to identify small molecule antagonists of the glucocorticoid receptor (GR) signaling pathway (AID 720692; active = well fitted inhibition curve with a large enough effect in the signal ratio in the repeat runs, not every such curve was filed as active; inconclusive = weak or mixed curves, or effect the other way; inactive = no such curve, though single readings can be large or run the other way; the % refers to the signal ratio; note: potency is the fitted concentration of half-maximal effect); settings: GR-bla HeLa, beta-lactamase FRET ratio, dexamethasone-stimulated, 18 h; activity change, negative = inhibition: at 58.5 µM (top of the series) unless noted
Procedure, shortened: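 Fluorescence from cleaved LiveBLAzer B/G FRET substrate reports GRE-driven beta-lactamase in HeLa cells; compounds are tested against 5 nM dexamethasone (final) over 18 h at 37 C, substrate incubation 2 h at room temperature.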

[5] = qHTS assay for identifying genotoxic compounds that show differential cytotoxicity against isogenic chicken DT40 cell lines with known DNA damage response pathways - Rev3 mutant cell line (AID 743014); settings: chicken DT40 Rev3-/- viability, CellTiter-Glo, 40 h; activity, negative = cytotoxicity: at 68.4 µM (top of the series); note: potency is the fitted concentration of half-maximal effect; nearly all actives have a fitted effect of over 55% in size
[6] = qHTS assay for identifying genotoxic compounds that show differential cytotoxicity against isogenic chicken DT40 cell lines with known DNA damage response pathways - Rad54/Ku70 mutant cell line (AID 743015); settings: DT40 Rad54/Ku70 mutant viability, CellTiter-Glo, 40 h; activity change, negative = cytotoxicity: at 66.8 µM (top of the series); note: nearly all actives have a fitted effect of over 60% in size; note: potency is the fitted concentration of half-maximal effect
[7] = qHTS assay to identify small molecule antagonists of the thyroid receptor (TR) signaling pathway - cell viability counter screen (AID 743064); settings: GH3.TRE-Luc viability, CellTiter-Fluor, 24 h; activity change, negative = cytotoxic: at 70.3 µM (top of the series) unless noted; note: potency is the fitted concentration of half-maximal effect; nearly all actives have a fitted effect of over 50% in size
Procedure, shortened: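 In-well cytotoxicity read by CellTiter-Fluor (30 min, 37 C) following 23.5 h exposure of GH3 cells bearing a TRE-luciferase sensor. Compounds were added alongside 1 nM (final) T3 to drive TR transactivation.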

[8] = qHTS assay to identify small molecule antagonists of the thyroid receptor (TR) signaling pathway (AID 743065); note: potency is the fitted concentration of half-maximal effect; nearly all actives have a fitted effect of over 55% in size
Procedure, shortened: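 Antagonism measured as loss of luciferase signal in GH3 cells stably carrying a TRE-luciferase reporter, co-treated with compound and T3 (1 nM final) for 23.5 h at 37 C. Viability was read in the same well by CellTiter-Fluor.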

[9] = biological target: Estrogen receptor (Homo sapiens) (UniProt P03372); test: qHTS assay to identify small molecule antagonists of the estrogen receptor alpha (ER-alpha) signaling pathway (AID 743069; active = well fitted curve in the direction sought with a large enough effect in the signal ratio in the repeat runs, not every such curve was filed as active; inconclusive = weak or mixed curves, or effect the other way; inactive = no such curve, though single readings can be large or run the other way; the % refers to the signal ratio; note: % is set by controls: 0 for no effect and ±100 for the full control effect); settings: HEK293 ER-alpha-UAS-bla, beta-lactamase ratio, antagonist mode; activity, negative = inhibition: at 69.4 µM (top of the series) unless noted
Procedure, shortened: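 Compound effects are measured against 17beta-estradiol stimulation in HEK293 cells with a UAS-controlled beta-lactamase reporter for ER-alpha. Exposure lasts 18 hr at 37C; LiveBLAzer B/G FRET substrate follows for 2 hr at room temperature.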

[10] = biological target: Estrogen receptor (Homo sapiens) (UniProt P03372); test: qHTS assay to identify small molecule agonists of the estrogen receptor alpha (ER-alpha) signaling pathway (AID 743075; calls by dose curve; note: potency is the fitted concentration of half-maximal effect); settings: HEK293 ER-alpha-UAS-bla, beta-lactamase FRET ratio, 18 h; activation: at 70.1 µM (top of the series) unless noted
[11] = biological target: Estrogen receptor (Homo sapiens) (UniProt P03372); test: qHTS assay to identify small molecule agonists of the estrogen receptor alpha (ER-alpha) signaling pathway using the BG1 cell line (AID 743079); settings: BG1Luc4E2 cells, ERE-luciferase agonist, 22 h; activation: at 70.3 µM (top of the series) unless noted; note: potency is the fitted concentration of half-maximal effect; nearly all actives have a fitted effect of over 20% in size
[12] = qHTS assay to identify small molecule antagonists of the estrogen receptor alpha (ER-alpha) signaling pathway using the BG1 cell line (AID 743080; calls by dose curve;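 note: BG1 cells stimulated with 17beta-estradiol alongside compound; % is set by controls: 0 for no effect and ±100 for the full control effect; nearly all actives have a fitted effect of over 25% in size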); settings: BG1Luc4E2 ERE-luciferase antagonist mode, luminescence; activity change, negative = inhibition: at 70.3 µM (top of the series) unless noted
Procedure, shortened: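 Endogenous full-length ER-alpha in BG1-Luc-4E2 cells drives a stably integrated 4×ERE luciferase gene; compounds were tested against 17beta-estradiol over 21.5 h, with luminescence and multiplexed viability fluorescence recorded.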

[13] = qHTS assay for small molecule agonists of the p53 signaling pathway (AID 651631; calls by dose curve; note: potency is the fitted concentration of half-maximal effect; nearly all actives have a fitted effect of over 15% in size); settings: HCT-116 p53RE-bla reporter, beta-lactamase FRET ratio, 16 h; activation: at 73.3 µM (top of the series) unless noted
Procedure, shortened: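 Readout was fluorescence from the LiveBLAzer FRET substrate, applied for 2 h at room temperature after 16 h compound exposure at 37 °C. Cells were the p53RE-bla HCT-116 line, with beta-lactamase driven by p53 response elements.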

[14] = qHTS assay for identifying genotoxic compounds that show differential cytotoxicity against isogenic chicken DT40 cell lines with known DNA damage response pathways - wild type cell line (AID 743012); settings: DT40 wild type chicken cells viability, CellTiter-Glo, 40 h; activity change, negative = cytotoxicity: at 68.4 µM (top of the series) unless noted; note: potency is the fitted concentration of half-maximal effect; nearly all actives have a fitted effect of over 60% in size
Procedure, shortened: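 Quantitative HTS on parental DT40 cells: 40 h compound treatment at 37 C/5% CO2, with viability then determined by CellTiter-Glo luminescence. Values serve as the DNA repair-proficient reference for differential cytotoxicity.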

[15] = biological target: Peroxisome proliferator-activated receptor gamma (Homo sapiens) (UniProt P37231); test: qHTS assay to identify small molecule agonists of the peroxisome proliferator-activated receptor gamma (PPARg) signaling pathway (AID 743094; active = well fitted activation curve with a large enough effect in the signal ratio in the repeat runs, not every such curve was filed as active; inconclusive = weak or mixed curves, or effect the other way; inactive = no such curve, though single readings can be large or run the other way; the % refers to the signal ratio; note: % is set by controls: 0 for no effect and ±100 for the full control effect); settings: HEK293H PPARg-UAS-bla, beta-lactamase FRET ratio, 17 h; activation: at 57 µM (top of the series) unless noted
Procedure, shortened: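 Stably transfected HEK293H cells (GeneBLAzer PPARg UAS-bla) were incubated with test substances for 17 h at 37C after a 5 h pre-incubation; beta-lactamase activity was then detected by FRET substrate fluorescence.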

[16] = biological target: Glucocorticoid receptor (Homo sapiens) (UniProt P04150); test: qHTS assay to identify small molecule agonists of the glucocorticoid receptor (GR) signaling pathway (AID 720691; active = well fitted activation curve with a large enough effect in the signal ratio in the repeat runs, not every such curve was filed as active; inconclusive = weak or mixed curves, or effect the other way; inactive = no such curve, though single readings can be large or run the other way; the % refers to the signal ratio; note: % is set by controls: 0 for no effect and ±100 for the full control effect); settings: GR-bla HeLa, beta-lactamase reporter ratio, 18 h; activation: at 62.4 µM (top of the series) unless noted
Procedure, shortened: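 Beta-lactamase reporter activity, read as fluorescence intensity, was measured in GR-bla HeLa cells exposed to compounds for 18 h at 37 C and then loaded with LiveBLAzer B/G FRET substrate for 2 h at room temperature.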
Tags give direction and shape of the fitted curve or compound fluorescence and quenching.

UniProt P03372, sequence (P03372 whole entry, looked up): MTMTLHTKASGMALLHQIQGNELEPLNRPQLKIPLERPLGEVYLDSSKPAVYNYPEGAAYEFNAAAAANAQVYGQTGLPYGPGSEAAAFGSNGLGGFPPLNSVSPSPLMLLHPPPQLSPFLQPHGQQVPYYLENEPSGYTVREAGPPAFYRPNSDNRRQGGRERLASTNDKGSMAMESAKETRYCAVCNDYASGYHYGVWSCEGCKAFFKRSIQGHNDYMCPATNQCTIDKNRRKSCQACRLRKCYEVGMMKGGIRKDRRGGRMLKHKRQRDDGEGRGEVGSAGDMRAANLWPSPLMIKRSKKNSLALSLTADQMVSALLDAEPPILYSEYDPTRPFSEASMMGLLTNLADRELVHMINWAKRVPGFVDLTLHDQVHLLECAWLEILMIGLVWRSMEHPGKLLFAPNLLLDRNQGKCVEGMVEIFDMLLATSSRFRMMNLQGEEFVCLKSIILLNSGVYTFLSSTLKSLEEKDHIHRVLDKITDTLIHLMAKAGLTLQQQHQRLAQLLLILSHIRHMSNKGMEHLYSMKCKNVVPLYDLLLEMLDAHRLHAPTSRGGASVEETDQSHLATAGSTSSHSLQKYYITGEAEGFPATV
UniProt P04150, sequence (P04150 whole entry, looked up): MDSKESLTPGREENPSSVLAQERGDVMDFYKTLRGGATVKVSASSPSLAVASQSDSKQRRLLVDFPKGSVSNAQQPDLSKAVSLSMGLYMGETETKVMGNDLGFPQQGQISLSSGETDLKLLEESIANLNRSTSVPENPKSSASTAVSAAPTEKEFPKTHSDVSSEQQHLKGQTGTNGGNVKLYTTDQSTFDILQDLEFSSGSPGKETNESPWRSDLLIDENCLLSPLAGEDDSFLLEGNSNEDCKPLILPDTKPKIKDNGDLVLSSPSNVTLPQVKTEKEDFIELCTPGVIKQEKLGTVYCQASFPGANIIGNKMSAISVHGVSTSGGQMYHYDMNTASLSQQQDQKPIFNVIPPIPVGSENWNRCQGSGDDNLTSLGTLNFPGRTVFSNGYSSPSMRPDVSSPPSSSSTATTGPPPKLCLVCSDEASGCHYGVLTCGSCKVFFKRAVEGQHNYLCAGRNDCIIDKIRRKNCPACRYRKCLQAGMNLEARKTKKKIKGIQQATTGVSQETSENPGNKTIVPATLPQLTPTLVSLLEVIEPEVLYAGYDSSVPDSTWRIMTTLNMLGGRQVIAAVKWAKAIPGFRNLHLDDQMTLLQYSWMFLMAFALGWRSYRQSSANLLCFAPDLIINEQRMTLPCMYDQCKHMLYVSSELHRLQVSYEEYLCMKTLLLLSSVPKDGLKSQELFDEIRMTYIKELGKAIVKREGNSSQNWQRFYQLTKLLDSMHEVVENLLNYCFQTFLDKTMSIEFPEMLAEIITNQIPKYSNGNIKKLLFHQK
UniProt P37231, sequence (P37231 whole entry, looked up): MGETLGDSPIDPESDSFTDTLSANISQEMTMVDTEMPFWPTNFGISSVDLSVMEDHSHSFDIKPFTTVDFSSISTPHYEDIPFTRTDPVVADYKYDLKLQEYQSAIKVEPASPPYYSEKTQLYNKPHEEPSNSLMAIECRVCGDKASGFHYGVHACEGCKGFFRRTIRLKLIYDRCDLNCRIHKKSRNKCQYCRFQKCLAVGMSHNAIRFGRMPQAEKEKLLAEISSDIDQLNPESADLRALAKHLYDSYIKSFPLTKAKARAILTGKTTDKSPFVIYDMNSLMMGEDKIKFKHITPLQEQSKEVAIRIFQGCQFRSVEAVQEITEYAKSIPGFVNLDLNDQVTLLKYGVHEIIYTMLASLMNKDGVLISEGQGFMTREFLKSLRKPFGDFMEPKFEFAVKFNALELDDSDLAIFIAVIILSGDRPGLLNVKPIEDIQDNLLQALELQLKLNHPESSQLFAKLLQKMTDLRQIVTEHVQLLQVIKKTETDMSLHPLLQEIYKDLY

CC(=O)[C@H]1CC[C@H]2[C@@H]3CC[C@@H]4C[C@H](O)CC[C@]4(C)[C@H]3CC[C@]12C
inactive: Potency [2] | Potency [6] | Potency [9]
active: Potency [8] 13.3 µM | Potency [10] 26.8 µM [activator] | Potency [11] 29.8 µM
inconclusive: Potency [1] 33.5 µM [cytotoxic, partial curve, poor fit] | ratio activity, negative = MMP loss [3] -10.3% | Potency [4] 16.9 µM [inhibitor, partial curve] | Potency [5] 3.76 µM [cytotoxic, full curve] | Potency [7] 33.5 nM [rising, full curve, poor fit] | activity change, negative = inhibition [12] -12.1%

CN1CCCC(=C(c2cccs2)c2cccs2)C1
inactive: Potency [15]
inconclusive: Potency [13] 26.6 µM [fluorescent, partial curve] | ratio activity, negative = MMP loss [3] 11.3% | Potency [14] 23.7 µM [cytotoxic, partial curve] | Potency [6] 26.6 µM [cytotoxic]

COc1ccc2c(c1)C13CCCC[C@@H]1C(C2)N(C)CC3 (stereo partly drawn)
inconclusive: Potency [13] 3.35 µM [falling, single point] | Potency [14] 29.8 µM [cytotoxic] | Potency [5] 11.9 µM [cytotoxic, full curve]
inactive: Potency [16] | Potency [4] | Potency [15]
